From PMC9225989 (Signal Transduction and Targeted Therapy, 2022)
No constants are given. Whether binding was seen depends on the method and setting. In cells and extracts the contact can be indirect. Some results given as binding are weak or reduced against the parent protein; the word gives no strength. Each block holds one molecule with its values, some of them ahead of it.

Chains of the proteins cited; added tags and fusions are not shown.
UniProt P47746: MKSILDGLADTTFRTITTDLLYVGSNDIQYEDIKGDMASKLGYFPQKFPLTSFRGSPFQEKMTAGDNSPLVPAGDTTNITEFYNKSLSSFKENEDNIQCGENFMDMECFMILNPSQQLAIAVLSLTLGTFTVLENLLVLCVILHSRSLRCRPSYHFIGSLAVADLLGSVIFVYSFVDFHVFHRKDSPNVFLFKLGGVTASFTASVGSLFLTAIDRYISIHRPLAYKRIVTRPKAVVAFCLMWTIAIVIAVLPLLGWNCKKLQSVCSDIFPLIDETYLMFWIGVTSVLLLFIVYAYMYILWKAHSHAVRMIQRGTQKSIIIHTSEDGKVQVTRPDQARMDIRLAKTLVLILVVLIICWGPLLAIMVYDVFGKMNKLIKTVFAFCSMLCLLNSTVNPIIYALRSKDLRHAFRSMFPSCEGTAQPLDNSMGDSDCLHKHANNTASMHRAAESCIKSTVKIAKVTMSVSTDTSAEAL
UniProt Q8R4B8: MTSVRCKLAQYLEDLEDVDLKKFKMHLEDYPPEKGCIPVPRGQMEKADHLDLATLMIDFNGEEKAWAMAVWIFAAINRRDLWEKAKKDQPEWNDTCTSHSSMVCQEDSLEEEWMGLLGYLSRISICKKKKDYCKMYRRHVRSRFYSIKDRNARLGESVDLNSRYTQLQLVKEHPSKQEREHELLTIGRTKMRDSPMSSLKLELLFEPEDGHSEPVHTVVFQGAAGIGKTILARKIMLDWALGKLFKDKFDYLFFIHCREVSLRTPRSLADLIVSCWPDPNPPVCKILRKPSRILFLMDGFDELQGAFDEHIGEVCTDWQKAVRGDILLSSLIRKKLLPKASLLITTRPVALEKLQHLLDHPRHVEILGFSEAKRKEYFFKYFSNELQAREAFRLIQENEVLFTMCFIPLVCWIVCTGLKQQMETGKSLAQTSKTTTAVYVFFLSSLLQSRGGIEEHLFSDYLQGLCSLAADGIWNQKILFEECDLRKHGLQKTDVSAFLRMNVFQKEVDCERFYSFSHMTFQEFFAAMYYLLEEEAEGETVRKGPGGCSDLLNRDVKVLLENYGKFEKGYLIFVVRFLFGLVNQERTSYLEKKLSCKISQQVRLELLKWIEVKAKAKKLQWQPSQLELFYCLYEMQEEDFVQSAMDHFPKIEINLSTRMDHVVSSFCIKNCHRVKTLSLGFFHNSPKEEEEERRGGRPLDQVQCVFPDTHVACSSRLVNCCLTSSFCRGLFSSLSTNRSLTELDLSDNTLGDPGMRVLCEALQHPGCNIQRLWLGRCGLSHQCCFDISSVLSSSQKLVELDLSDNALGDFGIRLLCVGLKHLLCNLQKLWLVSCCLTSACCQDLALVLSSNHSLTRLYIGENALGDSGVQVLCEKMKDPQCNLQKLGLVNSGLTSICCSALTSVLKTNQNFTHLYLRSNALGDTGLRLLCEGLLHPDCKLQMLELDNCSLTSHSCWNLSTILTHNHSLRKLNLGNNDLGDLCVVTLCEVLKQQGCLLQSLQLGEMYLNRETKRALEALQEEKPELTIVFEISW

Legend:
[1] = biological target: Flag-tagged CB1R, full length (CB1R-FL, 1-473 amino acids) (mouse) (UniProt P47746); assay: co-IP; HL-1 cells co-transfected with the Flag-tagged Cb1r plasmid and one of the Myc-Nlrp3, His-Gsdmd, HA-Casp1 or GST-Asc plasmids; precipitation with anti-Flag antibody, and the reverse
[2] = biological target: cannabinoid receptor 1 (CB1R), endogenous in mouse HL-1 myocytes (mouse (endogenous in HL-1)) (UniProt P47746); assay: co-IP; endogenous proteins in mouse HL-1 cells; precipitation with a CB1R antibody; compared Lv-vector with Lv-CB1R cells and WT with Cb1r-/- cells

Molecule: NLRP3, endogenous in mouse HL-1 myocytes (from UniProt Q8R4B8 1-1033)
binding [2]: binds

B2: Casp1, endogenous in mouse HL-1 myocytes (enzyme, UniProt P29452 1-402)
chain: MADKILRAKRKQFINSVSIGTINGLLDELLEKRVLNQEEMDKIKLANITAMDKARDLCDHVSKKGPQASQIFITYICNEDCYLAGILELQSAPSAETFVATEDSKGGHPSSSETKEEQNKEDGTFPGLTGTLKFCPLEKAQKLWKENPSEIYPIMNTTTRTRLALIICNTEFQHLSPRVGAQVDLREMKLLLEDLGYTVKVKENLTALEMVKEVKEFAACPEHKTSDSTFLVFMSHGIQEGICGTTYSNEVSDILKVDTIFQMMNTLKCPSLKDKPKVIIIQACRGEKQGVVLLKDSVRDSEEDFLTDAIFEDDGIKKAHIEKDFIAFCSSTPDNVSWRHPVRGSLFIESLIKHMKEYAWSCDLEDIFRKVRFSFEQPEFRLQMPTADRVTLTKRFYLFPGH
binding [2]: binds

Other lines, results leading:

binding [1]: binds
Molecule: Myc-tagged NLRP3 (expressed in HL-1 cells) (from UniProt Q8R4B8 1-1033)

binding [2]: no binding
B1: NLRP1b, endogenous in mouse HL-1 myocytes (protein, UniProt Q2LKW6 1-1233)
chain: MEESPPKQKSNTKVAQHEGQQDLNTTRHMNVELKHRPKLERHLKLGMIPVVYMKQGEEILYPAQSLREENLIQNFTSLLLLQKLCPKDPENMIRKSWASCVPEEGGHMINIQDLFGPNIGTQKEPQLVIIEGAAGIGKSTLARLVKRAWKEGQLYRDHFQHVFFFSCRELAQCKKLSLAELIAQGQEVPTAPINQILSHPEKLLFILDGIDEPAWVLADQNPELCLHWSQRQPVHTLLGSLLGKSILPEAFFLLTTRTTALQKFIPSLPMPCQVEVLGFSGIERENYFYKYFANQRHAITAFMMVESNPVLLTLCEVPWVCWLVCTCLKKQMEQGRVLSLKSQTTTALCLKYLSLTIPDKHRRTQVKALCSLAAEGIWKRRTLFSESDLCKQGLDEDAVATFLKTGVLQKQASSLSYSFAHLCLQEFFAAISCILEDSEERHGNMEMDRIVETLVERYGRQNLFEAPTVRFLFGLLGKEGVKGMEKLFSCSLHGKTNLKLLWHILVKSQPHQPPCLGLLHCLYENQDMELLTHVMHDLQGTIVPGPNDTAHTVLQTNVKHLVVQTDMELMVATFCIQFYCHVRTLQLNMEKQQGYALISPRMVLYRWTPITNASWEILFYNLKFTRNLEGLDLSGNSLRYSVVQSLCNTLRYPGCQLKTLWLVKCGLTSRYCSLLASVLSAHSSLTELYLQLNDLGDDGVRMLCEGLRNPVCNLSILWLDLSSLSAQVITELRTLEEKNPKLYIRSIWMPHMMVPTENMDEEAILTTLKQQRQESGDKPMEILGTEEDFWGPTGPVATELVDRVRNLYRMPQMMVPTENMDEEDILTSFKQQRQQSGANPMEILGTEEDFWGPIGPVATEVVYRERNLYRVQLPMAGSYHCPSTRLHFVVTRAVTIEIEFCAWSQFLDKTPLQQSHMVVGPLFDIKAEQGAVTAVYLPHFVSLKDTKASTFDFKVAHFQEHGMVLETPDRVKPGYTVLKNPSFSPMGVVLRIIPAARHFIPITSITLIYYRVNQEEVTLHLYLVPNDCTIQKAIDDEEMKFQFVRINKPPPVDNLFIGSRYIVSGSENLEITPKELELCYRSSKEFQLFSEIYVGNMGSEIKLQIKNKKHMKLIWEALLKPGDLRPALPRIAQALKDAPSLLHFMDQHREQLVARVTSVDPLLDKLHGLVLNEESYEAVRAENTNQDKMRKLFNLSRSWSRACKDLFYQALKETHPHLVMDLLEKSGGVSLGS

binding [2]: binds
B3: GSDMD, endogenous in mouse HL-1 myocytes (protein, UniProt Q9D8T2 1-487)
chain: MPSAFEKVVKNVIKEVSGSRGDLIPVDSLRNSTSFRPYCLLNRKFSSSRFWKPRYSCVNLSIKDILEPSAPEPEPECFGSFKVSDVVDGNIQGRVMLSGMGEGKISGGAAVSDSSSASMNVCILRVTQKTWETMQHERHLQQPENKILQQLRSRGDDLFVVTEVLQTKEEVQITEVHSQEGSGQFTLPGALCLKGEGKGHQSRKKMVTIPAGSILAFRVAQLLIGSKWDILLVSDEKQRTFEPSSGDRKAVGQRHHGLNVLAALCSIGKQLSLLSDGIDEEELIEAADFQGLYAEVKACSSELESLEMELRQQILVNIGKILQDQPSMEALEASLGQGLCSGGQVEPLDGPAGCILECLVLDSGELVPELAAPIFYLLGALAVLSETQQQLLAKALETTVLSKQLELVKHVLEQSTPWQEQSSVSLPTVLLGDCWDEKNPTWVLLEECGLRLQVESPQVHWEPTSLIPTSALYASLFLLSSLGQKPC
